Data as given in PubChem BioAssay (NCI).
Values joined by “and” are separate entries in the source; they are usually repeats but may differ in a detail not shown here. Equal entries are not always repeated.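 Cultured in 96-well plates, cells were exposed to test compound for 48 hours across five concentrations. Here, GI50 denotes the concentration required for 50% inhibition of growth. TGI is the concentration that stops growth completely.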

System: NCI-H322M lung
Assay: NCI-60 cell line screen, 48 h

Compound | GI50 | TGI
O=C1c2cc3c(cc2-c2c1c1cc(F)c(F)cc1c(=O)n2C[C@H](O)CO)OCO3 | 0.19 µM | > 100 µM
COC(=O)Cc1cc(=O)oc2c1C(=O)CCC2 | – | > 100 µM
Cc1nc2cc(Nc3nc(Nc4ccc(F)cc4)nc(-c4ccc(Cl)cc4)n3)ccc2n1Cc1ccccc1 | > 100 µM | > 100 µM
Cc1cc2c(-c3nc4ccccn4c3NC34CC5CC(CC(C5)C3)C4)c(O)c(O)cc2c(O)c1-c1c(C)cc2c(-c3nc4ccccn4c3NC34CC5CC(CC(C5)C3)C4)c(O)c(O)cc2c1O | 0.928 µM | > 25 µM
COC12C=C/C(=C(/C(=O)OCc3csc(SC)n3)C(=O)CCCCCCCCC3(OC)C=C/C(=C(/C(=O)OCc4cnc(SC)s4)C(=O)CCCCCCCC1)O3)O2 (stereo not given) | 8.52 µM | > 100 µM
NCCNc1nc2ccccc2c2c(=O)c3cc(F)cc(Cl)c3sc12 | 1.5 µM | 2.85 µM
O=C(CCl)Nc1ccc(C(=O)N/N=C/c2ccc(Cl)cc2)cc1 | 2.55 µM | 7.7 µM and 25.4 µM
CCCCCCCCCCCCNC(=O)[C@H]1CSC(c2ccsc2)N1 (stereo not given in full) | 2.29 µM | 7.93 µM
Brc1ccc2[nH]cc(-c3csc(-c4c[nH]c5ccc(Br)cc45)n3)c2c1 | – | 5.68 µM
COc1ccc2nc3cc(Cl)ccc3c(Nc3ccc(O)c(CN4CCCC4)c3)c2c1 | 3.05 µM | 9.08 µM
O=C(NOC(=O)c1ccc([N+](=O)[O-])cc1)c1ccc(Cl)cc1 | – | > 100 µM
CCOP(=O)(CC1OC(CO)C(O)C1O)OCC (stereo not given) | – | > 100 µM
COc1cccc(C2CC(=O)Nc3cc4c(cc32)CCC4)c1OC (stereo not given) | 6.71 µM | > 100 µM
C#CCn1cc(C=C2C(=O)NC(=S)NC2=O)c2cc(Cl)ccc21 | 1.99 µM | 4.58 µM
CC12CCC(=O)[C@@]1(C)CCCC2=O (stereo not given in full) | – | > 100 µM
Nc1nc(Cl)cc(NCCCCCCNc2cc(Cl)nc(N)n2)n1 | – | 77.4 µM
CCOC(=O)C(=Cc1c(-c2ccccc2)[nH]c2ccccc12)C(=O)OCC | 12.7 µM | 54.1 µM
CCOC(=O)c1c(-c2ccc(OC)cc2)c(C#N)c(=S)n(C2OC(CO)C(O)C(O)C2O)c1C (stereo not given) | – | > 100 µM
O=C1c2cccnc2C(=O)c2c1nc1ccccc1c2-c1ccc2c3c(nc4ccccc42)C(=O)c2cccnc2-c13 | – | 4.57 µM
CCOC(=O)OC1(c2ccccc2)CCN(C)CC1 | – | > 100 µM
O=C1[C@H]2ON(c3ccccc3)C(c3cccc([N+](=O)[O-])c3)[C@H]2C(=O)N1c1ccc(Cc2ccc(N3C(=O)[C@@H]4ON(c5ccccc5)C(c5cccc([N+](=O)[O-])c5)[C@@H]4C3=O)cc2)cc1 (stereo not given in full) | – | > 100 µM
O=c1/c(=C/c2ccc3c(c2)OCO3)sc2nnc(Cc3ccccc3)n12 | – | > 100 µM
CC1=NN(c2cccc(Cl)c2)C2(C1=Cc1ccc(N(C)C)cc1)C(Cl)C(=O)N2c1nc2ccccc2s1 (stereo not given) | – | > 100 µM

Compound | GI50 | TGI
C[C@@](Br)(C(=O)O)[C@H](Br)C(=O)O | – | > 100 µM
O=c1cccc2n1CC1CNCC2C1 (stereo not given) | – | > 100 µM
O=C(/C(=N/Nc1cn[nH]c(=O)c1Cl)c1ccccc1)c1ccccc1 | – | > 100 µM
NC(=O)c1c(NC(=O)c2cccc(C(F)(F)F)c2)sc2c1CCC(=O)C2 | > 23 µM | > 100 µM
COc1ccccc1Cn1c2c(c3cc(O)ccc31)C(=O)c1ccccc1C2=O | – | > 100 µM
CC(=O)c1c(Nc2ccc(F)c(F)c2F)[nH]c2c(F)cc(F)cc2c1=O | 0.292 µM | 9.2 µM
CC(C)(C)OC(=O)n1c(Cl)c(C(=O)N=C=S)c2ccccc21 | 22.4 µM | > 100 µM
Cc1cc(C)c2nccc(NCCCN(C)C)c2c1[N+](=O)[O-] | – | > 100 µM
C=C1c2ccccc2N(S(=O)(=O)c2ccc(C)cc2)C12CCCCC2 | – | > 100 µM
COc1ccc(C(=C2C(=O)OC(=O)C2=C(C)C)c2ccc(OC)cc2)cc1 | – | > 100 µM
COc1cc(-c2nn3c(=O)n(-c4ccc(Cl)cc4)c(=O)nc3s2)cc(OC)c1OC | – | > 100 µM
O=C(O[C@@H](/C=C/c1ccccc1)P1(=O)N(Cc2ccccc2)[C@@H]2CCCC[C@H]2N1Cc1ccccc1)c1ccccc1 | – | > 100 µM
CC(Br)CN(CC(C)Br)c1ccc2c(c1)Cc1ccccc1-2 (stereo not given) | – | 31.7 µM
CC(=O)OC1COC(N2c3ccccc3[C@@H]3CCc4c([nH]c5ccccc45)[C@@H]32)C(OC(C)=O)C1OC(C)=O (mixture of isomers) | – | > 100 µM
Oc1ccc(C[C@@H]2CN[C@H](Cc3ccc(O)c(Br)c3)CN2)cc1 | – | > 100 µM
CCCC/C=C1\CCC(CN2CCCC2)C1=O (stereo not given) | – | 31.8 µM
CCC(C)C(NC(=O)C(CCCC[N+](=N)N)NC(=O)C(CCCC[N+](=N)N)NC(=O)c1ccc(OC)cc1)C(=O)NC(CCCC[N+](=N)N)C(=O)N1CCCC1C(=O)NC(CCCCN)C(=O)NC(CC(C)C)C(N)=O (stereo not given) | – | > 100 µM
CCc1nc2c([nH]1)C(=O)c1ccccc1C2=O | – | > 100 µM
CN(C)CN1C(=O)/C(=N\n2c(-c3ccncc3)n[nH]c2=S)c2ccccc21 | – | > 100 µM
C/C(=C\CO)CC[C@@H]1[C@@]2(C)CCCC(C)(C)[C@@H]2CC[C@@]1(C)O | – | > 100 µM
COC(=O)Cc1c2n(c3ccccc13)C(=O)N1c3ccccc3C(CC(=O)OC)C21 (stereo not given) | – | > 100 µM
NC1(C(=O)O)CSSC1 | 17.9 µM | 96.3 µM
